# According to PubChem BioAssay AID2101 (National Center for Advancing Translational Sciences (NCATS), 2009):
# About 300 (0.091%) of roughly 330,000 compounds were called active. The shares of active, inactive and inconclusive entries below differ from those in the screen. The call rests on the fitted dose curve; in most records, active means well fitted inhibition curve with a large enough effect; inconclusive means small, poorly fitted or top-dose-only effect, or effect the other way, or another doubt; inactive means no such curve, though single readings can be large or run the other way. Potencies of inconclusive entries are left out as doubtful fits.
# Target: Lysosomal acid glucosylceramidase (Homo sapiens) (UniProt P04062)
# Assay: qHTS Assay for Inhibitors and Activators of N370S glucocerebrosidase as a Potential Chaperone Treatment of Gaucher Disease;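 on activity change, negative = inhibition: 0% = full enzyme activity and -100% = no enzyme basal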
# Conditions: N370S GC spleen homogenate, 4MU-glucoside fluorescence; activity change, negative = inhibition: at 59.4 µM (top of the series) unless noted
# Potency means the concentration at half of the fitted maximal effect.
SMILES,Potency,"activity change, negative = inhibition"
COc1ccccc1NC(=O)COc1ccccc1C(=O)Nc1ccccc1,"inconclusive [activator, partial curve]",–
Cc1cc(C)c2cc(C(=O)N3CCC(N4CCCCC4)CC3)[nH]c2c1,"inconclusive [inhibitor, single point]",–
CC(C)Sc1nc(N2CCCC2)c2c(c1C#N)CC(C)(C)OC2,"inconclusive [activator, partial curve]",–
O=C(COC(=O)c1c2c(nc3ccccc13)CCCCC2)c1ccc(Cl)s1,"inconclusive [activator, single point]",–
COCCn1c(=O)c(-c2cccc(C#N)c2)nc2cnc(N3CCNCC3)nc21,"inconclusive [activator, single point]",–
O=C1CC(O)(C(F)(F)F)Oc2c1ccc1ccccc21 (centres undefined),inactive,–
COc1ccccc1-c1coc2c(CN3CCC(C)CC3)c(O)ccc2c1=O,"inconclusive [activator, partial curve]",–
CCOC(=O)c1c(C)[nH]c(C(=O)OCC(=O)Nc2sc(C(=O)N(C)C)c(C)c2C(=O)OCC)c1C,"inconclusive [activator, partial curve]",–
CCOC(=O)C1OC1C(=O)NC(CC(C)C)C(=O)NCCC(C)C (centres undefined),inactive,–
CCCC[n+]1ccn(-c2nc3ccccc3nc2[N-]S(=O)(=O)c2ccccc2)c1,"inconclusive [activator, partial curve]",–
C=CCn1c(O)c(N=NC(=S)Nc2ccc(OC)cc2)c2ccccc21,inactive,–
S=C(Nc1ccccn1)c1ccccn1,inactive,–
CCCCNc1c(-c2cccc(-c3ccc(OC)cc3)c2)nc2ccc(C)cn12,"inconclusive [inhibitor, partial curve]",–
O=C(Cn1c(=O)n(Cc2ccccc2)c(=O)c2ccccc21)NCc1ccco1,"inconclusive [activator, partial curve]",–
Cc1cc(=O)oc2c(CN3CCCC3)c(O)c(Cl)cc12,"inconclusive [activator, partial curve]",–
O=C(c1cc2c(=O)n3ccccc3nc2s1)N1CCc2ccccc2C1,"inconclusive [activator, single point]",–
CSCC[C@H](NC(=O)[C@H](Cc1ccccc1)n1c(=O)[nH]c2ccccc2c1=O)C(=O)N1CCC(C(=O)O)CC1,"inconclusive [activator, single point]",–
CNC(=O)CN1C(=O)COc2ccc(S(=O)(=O)N3CCCCCC3)cc21,"inconclusive [inhibitor, single point]",–
O=C1CCc2cc(S(=O)(=O)Nc3ccccc3)cc3c2N1CC3,"inconclusive [inhibitor, full curve, poor fit]",–
Clc1cccc(CNc2nc(-c3cccnc3)nc3ccccc23)c1,"inconclusive [inhibitor, partial curve]",–
CCC(C)n1cnc2c(c1=O)c1nc3ccccc3nc1n2Cc1ccccc1OC (centres undefined),"inconclusive [activator, full curve]",–
COc1ccc(-c2cc(C(F)(F)F)nc(N3CCCCC3)n2)cc1OC,inactive,–

SMILES,Potency,"activity change, negative = inhibition"
Cc1cccc(NC(=S)N(CCN2CCOCC2)Cc2cc3cc4c(cc3[nH]c2=O)OCCO4)c1,"inconclusive [inhibitor, single point]",–
c1ccc(-c2noc(-c3cccc4ccccc34)n2)nc1,inactive,–
N=C1Sc2ccccc2C2=NCCCN12,inactive,–
C=CCCCCCCC=C,inactive,–
CCOC(=O)c1c(C(F)(F)F)nc2ncccn12,inactive,–
COc1ccc(OC)c(S(=O)(=O)Nc2ccc(O)c3ccccc23)c1,inactive,–
CC1(C)CC(=O)C/C(=N/NC(=O)CCCOc2ccc(Cl)cc2Cl)C1,"inconclusive [inhibitor, full curve, poor fit]",–
Cc1oc(-c2ccc(Cl)cc2)nc1CS(=O)CC(=O)NC1CCCCCC1 (centres undefined),inactive,–
C[C@H]1C=CC(=O)C[C@H]1c1c(F)cccc1Cl,inactive,–
O=C1CCCc2oc3c(cc(NS(=O)(=O)c4ccc5c6c(cccc46)C(=O)N5)c4ccccc43)c21,–,inconclusive: 31.9% [activator]
Oc1ccc(Br)cc1C=Nc1cccn2cc(-c3ccccc3)nc12,active: 4.47 µM,–
CC1CC=CC2C1C(=O)N(Cc1ccccc1)C2c1ccc(-c2ccc(N(C)C)cc2)cc1F (centres undefined),inactive,–
Clc1ccc(C(Cn2ccnc2)OCc2c(Cl)cccc2Cl)c(Cl)c1 (centres undefined),"inconclusive [inhibitor, single point]",–
Cc1ccc(-n2c(=O)c(C#N)cc3c(=O)n4ccccc4nc32)cc1,"inconclusive [activator, full curve]",–
Cc1nn(Cc2ccccc2Cl)c(C)c1NC(=O)c1noc(C(C)C)c1[N+](=O)[O-],"inconclusive [inhibitor, single point]",–
O=c1cc(-c2ccccc2Cl)oc2c(NS(=O)(=O)c3cccs3)ccc(O)c12,"inconclusive [activator, partial curve]",–
CCNS(=O)(=O)c1cc(-c2nnc(OC)c3ccccc23)ccc1C,"inconclusive [inhibitor, single point]",–
N#Cc1cc2c(=O)n3ccccc3nc2n(-c2ccccc2Cl)c1=O,"inconclusive [activator, partial curve]",–
CC#CCN1c2ccccc2[C@]23C[C@@H](C(=O)OC)N(S(=O)(=O)c4ccc(C(F)(F)F)cc4)C2=NC(C(=O)OC)=C(C(=O)OC)[C@H]13,–,inactive: 12.5% [at 12.8 µM]
CCC(C)(C)n1nnnc1C(c1cc2cc(OC)c(OC)cc2[nH]c1=O)N1CCc2ccccc21 (centres undefined),"inconclusive [inhibitor, partial curve]",–
COC(=O)C1=CN(Cc2ccc(OC)c(OC)c2)C=C(C(=O)OC)C1c1ccc(F)cc1,"inconclusive [activator, partial curve]",–
CN(C)c1cccc(C(=O)Nc2cccc(S(=O)(=O)NC3=NCCC3)c2)c1,inactive,–
